The results in this text go back to paper PMC3749138.

By UniProt entry, the sequences of proteins in these tests, tags left out.
UniProt O60573: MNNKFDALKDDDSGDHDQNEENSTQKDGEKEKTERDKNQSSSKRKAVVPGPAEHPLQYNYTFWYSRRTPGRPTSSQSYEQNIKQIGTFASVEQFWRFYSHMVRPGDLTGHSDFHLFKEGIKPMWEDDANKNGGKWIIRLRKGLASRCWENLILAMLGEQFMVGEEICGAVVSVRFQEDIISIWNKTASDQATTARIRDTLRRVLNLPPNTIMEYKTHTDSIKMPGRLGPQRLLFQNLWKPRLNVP

Assay [1] deals with pGBKT7-4E2 (human eIF4E2, yeast two-hybrid fusion) (human) (UniProt O60573). The assay can be described thus: two-hybrid; GAL4-based system (Clontech), AH109 cells; pGBKT7 and pGADT7 constructs; interaction checked by growth on high stringency -Ade/-His/-Leu/-Trp dropout medium.
The next assay deals with HA-eIF4E2 (human) (UniProt O60573). As to the kind of experiment: co-IP; chicken anti-eIF4E2 on Chicken IgY Precipitating Resin with 1 mg lysate of HeLa cells transfected with HA-eIF4E2, NET buffer, 4°C; western blotting for 4E-T. (In general: In western blotting, separated proteins are transferred to a membrane and probed.)

These are yes or no findings as the source states them, for the method shown. For some assays here: In cells and extracts the contact can be indirect. Some binding calls cover weakened binding; strength is not graded here. For some assays here: Where a sequence is shown, tags or fusion partners need not be part of it.

B1: pGADT7-4E-T (human 4E-T, yeast two-hybrid fusion) (protein, UniProt Q9NRA8 1-985)
chain: MDRRSMGETESGDAFLDLKKPPASKCPHRYTKEELLDIKELPHSKQRPSCLSEKYDSDGVWDPEKWHASLYPASGRSSPVESLKKELDTDRPSLVRRIVDPRERVKEDDLDVVLSPQRRSFGGGCHVTAAVSSRRSGSPLEKDSDGLRLLGGRRIGSGRIISARTFEKDHRLSDKDLRDLRDRDRERDFKDKRFRREFGDSKRVFGERRRNDSYTEEEPEWFSAGPTSQSETIELTGFDDKILEEDHKGRKRTRRRTASVKEGIVECNGGVAEEDEVEVILAQEPAADQEVPRDAVLPEQSPGDFDFNEFFNLDKVPCLASMIEDVLGEGSVSASRFSRWFSNPSRSGSRSSSLGSTPHEELERLAGLEQAILSPGQNSGNYFAPIPLEDHAENKVDILEMLQKAKVDLKPLLSSLSANKEKLKESSHSGVVLSVEEVEAGLKGLKVDQQVKNSTPFMAEHLEETLSAVTNNRQLKKDGDMTAFNKLVSTMKASGTLPSQPKVSRNLESHLMSPAEIPGQPVPKNILQELLGQPVQRPASSNLLSGLMGSLEPTTSLLGQRAPSPPLSQVFQTRAASADYLRPRIPSPIGFTPGPQQLLGDPFQGMRKPMSPITAQMSQLELQQAALEGLALPHDLAVQAANFYQPGFGKPQVDRTRDGFRNRQQRVTKSPAPVHRGNSSSPAPAASITSMLSPSFTPTSVIRKMYESKEKSKEEPASGKAALGDSKEDTQKASEENLLSSSSVPSADRDSSPTTNSKLSALQRSSCSTPLSQANRYTKEQDYRPKATGRKTPTLASPVPTTPFLRPVHQVPLVPHVPMVRPAHQLHPGLVQRMLAQGVHPQHLPSLLQTGVLPPGMDLSHLQGISGPILGQPFYPLPAASHPLLNPRPGTPLHLAMVQQQLQRSVLHPPGSGSHAAAVSVQTTPQNVPSRSGLPHMHSQLEHRPSQRSSSPVGLAKWFGSDVLQQPLPSMPAKVISVDELEYRQ
As for B1, the binding entry in assay [1] is listed as “binds”.

B2: 4E-T (endogenous) (protein, UniProt Q9NRA8 1-985)
chain: MDRRSMGETESGDAFLDLKKPPASKCPHRYTKEELLDIKELPHSKQRPSCLSEKYDSDGVWDPEKWHASLYPASGRSSPVESLKKELDTDRPSLVRRIVDPRERVKEDDLDVVLSPQRRSFGGGCHVTAAVSSRRSGSPLEKDSDGLRLLGGRRIGSGRIISARTFEKDHRLSDKDLRDLRDRDRERDFKDKRFRREFGDSKRVFGERRRNDSYTEEEPEWFSAGPTSQSETIELTGFDDKILEEDHKGRKRTRRRTASVKEGIVECNGGVAEEDEVEVILAQEPAADQEVPRDAVLPEQSPGDFDFNEFFNLDKVPCLASMIEDVLGEGSVSASRFSRWFSNPSRSGSRSSSLGSTPHEELERLAGLEQAILSPGQNSGNYFAPIPLEDHAENKVDILEMLQKAKVDLKPLLSSLSANKEKLKESSHSGVVLSVEEVEAGLKGLKVDQQVKNSTPFMAEHLEETLSAVTNNRQLKKDGDMTAFNKLVSTMKASGTLPSQPKVSRNLESHLMSPAEIPGQPVPKNILQELLGQPVQRPASSNLLSGLMGSLEPTTSLLGQRAPSPPLSQVFQTRAASADYLRPRIPSPIGFTPGPQQLLGDPFQGMRKPMSPITAQMSQLELQQAALEGLALPHDLAVQAANFYQPGFGKPQVDRTRDGFRNRQQRVTKSPAPVHRGNSSSPAPAASITSMLSPSFTPTSVIRKMYESKEKSKEEPASGKAALGDSKEDTQKASEENLLSSSSVPSADRDSSPTTNSKLSALQRSSCSTPLSQANRYTKEQDYRPKATGRKTPTLASPVPTTPFLRPVHQVPLVPHVPMVRPAHQLHPGLVQRMLAQGVHPQHLPSLLQTGVLPPGMDLSHLQGISGPILGQPFYPLPAASHPLLNPRPGTPLHLAMVQQQLQRSVLHPPGSGSHAAAVSVQTTPQNVPSRSGLPHMHSQLEHRPSQRSSSPVGLAKWFGSDVLQQPLPSMPAKVISVDELEYRQ
Take B2: the binding result with HA-eIF4E2 (human) is reported as “binds”.
